Experimental data taken from publication PMC5892938.
The other results are listed elsewhere or left out. At the low end of the ranking the order means little.

Molecular target: GST-SBP-SLBP (stem-loop binding protein) (UniProt Q14493)
Assay: targeted RNA Bind-n-Seq;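 further: DESeq read counts versus GST-SBP nonspecific binding control pulldown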
Conditions: RBNS binding buffer: 25 mM Tris pH 7.5, 150 mM KCl, 3 mM MgCl2, 0.1% Tween, 0.5 mg/mL BSA, 1 mM DTT; 27 nM protein, 750 pM RNA pool; temperature not stated; high values mean tight binding

Row | Sequence | binding signal (log2 fold change)
1 | GGUCACGUCUCAAUCAACUCUUCGUCAGGAGUUUUCUCCUGCUUUUUCAACAGCUCGCAGUCAAG | -0.0628
2 | GGUCACGUCUCAAUCAACUCAAUUCCCAGGGAAAACCCUGGCUUUCUCAACAGCUCGCAGUCAAG | 0.0802
3 | GGUCACGUCUCAAUCAACUCAACUUCAGGAGUUUCCUCCUGCAUUCUCAACAGCUCGCAGUCAAG | 0.0115
4 | GGUCACGUCUCAAUCAACUCUACUCCCAGGGAAAUCCCUGGUAUUUUCAACAGCUCGCAGUCAAG | 0.0643
5 | GGUCACGUCUCAAUCAACUCUUUCCCCAGGGAAACCCCUGGCAAUGUCAACAGCUCGCAGUCAAG | 0.196
6 | GGUCACGUCUCAAUCAACUCAACUUCAGGAGUUUACUCCUGCAAUGUCAACAGCUCGCAGUCAAG | -0.0501
7 | GGUCACGUCUCAAUCAACUCAUCGCCAGGAGUUUACUCCUGUUUAUUCAACAGCUCGCAGUCAAG | -0.163
8 | GGUCACGUCUCAAUCAACUCUUACGAGGGGGGGAAAACCCCUUUACCCUCAAUAUCAACAGCUCGCAGUCAAG | -0.0458
9 | GGUCACGUCUCAAUCAACUCUCUCGAGGGGGGGAAAACCCCUUUACCCUCUUCUUCAACAGCUCGCAGUCAAG | -0.00259
10 | GGUCACGUCUCAAUCAACUCUACGGAGGGGGGGAAAACCCCUUUACCCUCAAUAUCAACAGCUCGCAGUCAAG | -0.083
11 | GGUCACGUCUCAAUCAACUCCCACGAGGGGGGGAAAACCCCUUUACCCUCUCCAUCAACAGCUCGCAGUCAAG | 0.3
12 | GGUCACGUCUCAAUCAACUCUUCGUCCAGGGAAACCCCUGGCUUAUUCAACAGCUCGCAGUCAAG | 0.045
13 | GGUCACGUCUCAAUCAACUCAACGCCAGGAGUUUCCUCCUGCUUAUUCAACAGCUCGCAGUCAAG | 0.0567
14 | GGUCACGUCUCAAUCAACUCUUCAGAGGGGGGGAAAACCCCUUUACCCUCCAUUUCAACAGCUCGCAGUCAAG | -0.464
15 | GGUCACGUCUCAAUCAACUCUUCCCCCAGGGAAAUCCCUGGUUUUCUCAACAGCUCGCAGUCAAG | -0.0537
16 | GGUCACGUCUCAAUCAACUCAUUUUCCAGGGAAAGCCCUGGUAAUUUCAACAGCUCGCAGUCAAG | 0.0265
17 | GGUCACGUCUCAAUCAACUCUUCGCCAGGAGUUUACUCCUGUAAUUUCAACAGCUCGCAGUCAAG | -0.121
18 | GGUCACGUCUCAAUCAACUCAUUCUCCAGGGAAAACCCUGGCAAACUCAACAGCUCGCAGUCAAG | -0.0901
19 | GGUCACGUCUCAAUCAACUCAUUCUCAGGAGUUUACUCCUGUUUAGUCAACAGCUCGCAGUCAAG | -0.0703
20 | GGUCACGUCUCAAUCAACUCUUCGUCCAGGGAAAGCCCUGGUUAUCUCAACAGCUCGCAGUCAAG | 0.0586
21 | GGUCACGUCUCAAUCAACUCCUCAGAGGGGGGGAAAACCCCUUUACCCUCAUUAUCAACAGCUCGCAGUCAAG | 0.4
22 | GGUCACGUCUCAAUCAACUCUUCCCCCAGGGAAAGCCCUGGUAUUUUCAACAGCUCGCAGUCAAG | -0.0216
23 | GGUCACGUCUCAAUCAACUCAUCCUCAGGAGUUUUCUCCUGCUUUGUCAACAGCUCGCAGUCAAG | 0.0608
24 | GGUCACGUCUCAAUCAACUCAAUUUCAGGAGUUUUCUCCUGCUUUCUCAACAGCUCGCAGUCAAG | 0.0195
25 | GGUCACGUCUCAAUCAACUCAAUCCCAGGAGUUUUCUCCUGUAAAUUCAACAGCUCGCAGUCAAG | 0.0714

Row | Sequence | binding signal (log2 fold change)
26 | GGUCACGUCUCAAUCAACUCUUUCGAGGGGGGGAAAACCCCUUUGCCCUCAAUCUCAACAGCUCGCAGUCAAG | 0.0134
27 | GGUCACGUCUCAAUCAACUCUUCUUCCAGGGAAAUCCCUGGUAAUUUCAACAGCUCGCAGUCAAG | 0.413
28 | GGUCACGUCUCAAUCAACUCUUCCUCCAGGGAAAUCCCUGGUUAUCUCAACAGCUCGCAGUCAAG | -0.106
29 | GGUCACGUCUCAAUCAACUCUUUCCCCAGGGAAAACCCUGGCUUUUUCAACAGCUCGCAGUCAAG | 0.0195
30 | GGUCACGUCUCAAUCAACUCAACUCCAGGAGUUUGCUCCUGUAAUUUCAACAGCUCGCAGUCAAG | 0.155
31 | GGUCACGUCUCAAUCAACUCAUUUUCCAGGGAAAGCCCUGGCUAACUCAACAGCUCGCAGUCAAG | -0.0607
32 | GGUCACGUCUCAAUCAACUCAUUCCCCAGGGAAACCCCUGGCUAUCUCAACAGCUCGCAGUCAAG | 0.119
33 | GGUCACGUCUCAAUCAACUCAUUCCCCAGGGAAAUCCCUGGCAUACUCAACAGCUCGCAGUCAAG | 0.0577
34 | GGUCACGUCUCAAUCAACUCAUUUCCCAGGGAAAGCCCUGGUUUUUUCAACAGCUCGCAGUCAAG | 0.101
35 | GGUCACGUCUCAAUCAACUCUUCUUCAGGAGUUUCCUCCUGUAAAUUCAACAGCUCGCAGUCAAG | 0.0644
36 | GGUCACGUCUCAAUCAACUCAAUAGAGGGGGGGAAAACCCCUUUGCCCUCACAAUCAACAGCUCGCAGUCAAG | 0.199
37 | GGUCACGUCUCAAUCAACUCAUCGCCAGGAGUUUCCUCCUGUAAUUUCAACAGCUCGCAGUCAAG | -0.0715
38 | GGUCACGUCUCAAUCAACUCUUUUCCCAGGGAAAUCCCUGGCAAAUUCAACAGCUCGCAGUCAAG | 0.255
39 | GGUCACGUCUCAAUCAACUCAAUUUCCAGGGAAAGCCCUGGCUAUUUCAACAGCUCGCAGUCAAG | -0.0388
40 | GGUCACGUCUCAAUCAACUCUAUUUCAGGAGUUUUCUCCUGCAUACUCAACAGCUCGCAGUCAAG | 0.102
41 | GGUCACGUCUCAAUCAACUCUAUUCCAGGAGUUUUCUCCUGCUAUCUCAACAGCUCGCAGUCAAG | 0.0293
42 | GGUCACGUCUCAAUCAACUCCAUAGAGGGGGGGAAAACCCCUUUACCCUCAUUUUCAACAGCUCGCAGUCAAG | 0.342
43 | GGUCACGUCUCAAUCAACUCCUAAGAGGGGGGGAAAACCCCUUUACCCUCCGUUUCAACAGCUCGCAGUCAAG | -0.21
44 | GGUCACGUCUCAAUCAACUCUAUCCCCAGGGAAAACCCUGGUAAUUUCAACAGCUCGCAGUCAAG | -0.217
45 | GGUCACGUCUCAAUCAACUCUAUGUCCAGGGAAAUCCCUGGUUUUCUCAACAGCUCGCAGUCAAG | -0.316
46 | GGUCACGUCUCAAUCAACUCAAUUUCCAGGGAAAACCCUGGCUUUUUCAACAGCUCGCAGUCAAG | -0.103
47 | GGUCACGUCUCAAUCAACUCAUCCCCCAGGGAAAGCCCUGGUAUUCUCAACAGCUCGCAGUCAAG | 0.149
48 | GGUCACGUCUCAAUCAACUCAACUUCCAGGGAAAUCCCUGGUAAUUUCAACAGCUCGCAGUCAAG | 0.151
49 | GGUCACGUCUCAAUCAACUCUUCUUCCAGGGAAACCCCUGGCUAACUCAACAGCUCGCAGUCAAG | -0.0649
50 | GGUCACGUCUCAAUCAACUCAUUCCCCAGGGAAAACCCUGGUUUAUUCAACAGCUCGCAGUCAAG | 0.256

Row | Sequence | binding signal (log2 fold change)
51 | GGUCACGUCUCAAUCAACUCAUCGUCCAGGGAAAUCCCUGGUUAAUUCAACAGCUCGCAGUCAAG | -0.359
52 | GGUCACGUCUCAAUCAACUCUUUCUCAGGAGUUUACUCCUGUAUUCUCAACAGCUCGCAGUCAAG | 0.0638
53 | GGUCACGUCUCAAUCAACUCUACUUCAGGAGUUUUCUCCUGUUAUGUCAACAGCUCGCAGUCAAG | -0.0174
54 | GGUCACGUCUCAAUCAACUCAAUCUCAGGAGUUUCCUCCUGCUUUCUCAACAGCUCGCAGUCAAG | 0.134
55 | GGUCACGUCUCAAUCAACUCAGUUUCCAGGGAAAACCCUGGCAUUUUCAACAGCUCGCAGUCAAG | 0.0243
56 | GGUCACGUCUCAAUCAACUCUUCUUCCAGGGAAACCCCUGGCAUUUUCAACAGCUCGCAGUCAAG | -0.0325
57 | GGUCACGUCUCAAUCAACUCCCUCGAGGGGGGGAAAACCCCUUUACCCUCACCGUCAACAGCUCGCAGUCAAG | 0.181
58 | GGUCACGUCUCAAUCAACUCUUCGCCCAGGGAAAACCCUGGUUUUUUCAACAGCUCGCAGUCAAG | -0.0795
59 | GGUCACGUCUCAAUCAACUCUUCUCCCAGGGAAAGCCCUGGUAUACUCAACAGCUCGCAGUCAAG | -0.189
60 | GGUCACGUCUCAAUCAACUCUAUCCCCAGGGAAAACCCUGGCAAUCUCAACAGCUCGCAGUCAAG | -0.0525
61 | GGUCACGUCUCAAUCAACUCUCUAGAGGGGGGGAAAACCCCUUUGCCCUCAUCGUCAACAGCUCGCAGUCAAG | 0.207
62 | GGUCACGUCUCAAUCAACUCUUUCUCAGGAGUUUUCUCCUGCAAAUUCAACAGCUCGCAGUCAAG | 0.0109
63 | GGUCACGUCUCAAUCAACUCUUUCCCCAGGGAAAUCCCUGGUUAACUCAACAGCUCGCAGUCAAG | 0.0282
64 | GGUCACGUCUCAAUCAACUCAACUCCAGGAGUUUACUCCUGUUAUGUCAACAGCUCGCAGUCAAG | 0.0826
65 | GGUCACGUCUCAAUCAACUCAUUUUCCAGGGAAACCCCUGGCUUUUUCAACAGCUCGCAGUCAAG | -0.195
66 | GGUCACGUCUCAAUCAACUCAACUCCCAGGGAAAACCCUGGCUAUCUCAACAGCUCGCAGUCAAG | -0.0567
67 | GGUCACGUCUCAAUCAACUCUACGCCAGGAGUUUACUCCUGUAUAUUCAACAGCUCGCAGUCAAG | -0.13
68 | GGUCACGUCUCAAUCAACUCAUUUUCAGGAGUUUACUCCUGCUUUUUCAACAGCUCGCAGUCAAG | -0.305
69 | GGUCACGUCUCAAUCAACUCAAUUCCCAGGGAAAACCCUGGCAAAUUCAACAGCUCGCAGUCAAG | 0.119
70 | GGUCACGUCUCAAUCAACUCAAUCCCCAGGGAAAUCCCUGGCAUUCUCAACAGCUCGCAGUCAAG | 0.318
71 | GGUCACGUCUCAAUCAACUCAGUUUCAGGAGUUUGCUCCUGUAUAUUCAACAGCUCGCAGUCAAG | -0.129
72 | GGUCACGUCUCAAUCAACUCAUCUCCCAGGGAAAACCCUGGUAUAUUCAACAGCUCGCAGUCAAG | 0.374
73 | GGUCACGUCUCAAUCAACUCUACUCCAGGAGUUUCCUCCUGCAAUUUCAACAGCUCGCAGUCAAG | 0.0157
74 | GGUCACGUCUCAAUCAACUCAGUUUCAGGAGUUUACUCCUGCUUUCUCAACAGCUCGCAGUCAAG | 0.209
75 | GGUCACGUCUCAAUCAACUCUAUCUCAGGAGUUUACUCCUGUUUAUUCAACAGCUCGCAGUCAAG | -0.000257
